Assay results taken from patent publication US9957330B2, “Polypeptides” (AFFIBODY AB, priority 2012, dated 2018).

Legend:
[1] = target: T1, CAIX-expressing SK-RC-52 cells (Homo sapiens, UniProt Q16790); test: […] binding analysis on living cells; format: cell-based; settings: living SK-RC-52 cells, 4° C.
T1 construct: The CAIX-expressing renal clear cell carcinoma cell line SK-RC-52; endogenous in cells; host or cells: SK-RC-52 renal clear cell carcinoma cells (provided by Active Biotech, Sweden)
Protocol: The CAIX-expressing renal clear cell carcinoma cell line SK-RC-52 was seeded on a local area of a cell culture dish (Nunclon™, Size 100620, NUNC NS, Roskilde, Denmark). The binding of ^99mTc-labeled Z variants to living cells was monitored in real-time at 4° C. using a […] Yellow (Ridgeview Instruments, Sweden) and established methods (Björkelund et al Appl Radiat Isot. 68:2372-6, 2010). […] The kinetic parameters were determined using the […] software.

SK-RC-52 cells = test: Cellular processing (internalization) by SK-RC-52 cells; format: cell-based; settings: 37° C.
Protocol: To evaluate the cellular processing, SK-RC-52 cells were incubated with the radiolabeled Z variants at 37° C. and 5% CO2. At designated time points (1, 2, 4, 8 and 24 h), a set of three dishes was removed from the incubator, the media was collected and cells were washed with ice cold serum-free medium. Cells were then treated with 0.5 ml of 0.2 M glycine buffer, pH 2, containing 4 M urea, for 5 min on ice. The acidic solution was collected and cells were washed with 0.5 ml glycine buffer. The acidic fractions were pooled. The cells were then incubated with 0.5 ml 1 M NaOH at 37° C. for at least 20 min. The cell debris was collected and the dishes were additionally washed with 0.5 ml of NaOH solution. The alkaline fractions were pooled. The radioactivity in the acidic solution was considered as membrane bound, and in the alkaline fractions as internalized.

SK-RC-52 xenografts = tested on: SK-RC-52 xenografts; parameters: species or system NMRI nu/nu mice; settings: mouse, in vivo
Protocol: Biodistribution studies were performed in female NMRI nu/nu mice. Two weeks before the study, 10×10^6 cells from renal clear cell carcinoma (SK-RC-52 cell line) were implanted in the right hind legs of NMRI nu/nu mice. Average tumor weight was 0.30±0.14 g at the time of experiment, and the average animal weight was 17.1±1.3 g. In order to determine the optimal injection dose, three groups of mice (n=4) were injected intravenously (tail vein) with three different doses (0.3 μg, 1 μg, and 5 μg, respectively) of ^99mTc-(HE)3-Z09781 in 100 μl PBS and sacrificed at 4 h post injection. Another three groups of mice (n=4) were injected with 1 μg to follow the clearance profile of ^99mTc-(HE)3-Z09781 at 1, 4 and 8 h post injection. To check the specificity of xenograft targeting of ^99mTc-(HE)3-Z09781, a group of mice (n=4) was subcutaneously pre-injected with 500 μg of unlabeled (His)6-Z06936 (parent Z variant to (HE)3-Z09781) and sacrificed at 4 h post injection. Blood, lung, liver, spleen, stomach, colon, duodenum, kidney, salivary glands, muscle, bone, intestines, tumor, and the remaining carcass were collected. Organs and tissue samples were weighed, and their radioactivity was measured. The tissue uptake values were calculated as percent of injected dose per gram tissue (% ID/g) except for the intestine and the carcass, which was calculated as % ID per whole sample.

B1: ^99mTc-(HE)3-Z09781: (HE)3-Z09781 radiolabeled with [99mTc(CO)3]+ (conjugate)
chain: HEHEHEAEAKYAKENLFAGWEIDDLPNLTEDQRNAFIYKLWDDPSQSSELLSEAKKLNDSQAPKVD
- ka1 ([1]; first binding event): 7400 M⁻¹ s⁻¹
- kd1 ([1]; first binding event): 1e-05 s⁻¹
- ka2 ([1]; second binding event): 1.3 × 10^4 1/MS
- kd2 ([1]; second binding event): 0.0017 s⁻¹
- Fraction internalized radioactivity after 24 h (SK-RC-52 cells): 17%
- blood clearance (SK-RC-52 xenografts): rapid blood clearance
- decrease of blood-associated radioactivity (SK-RC-52 xenografts): about 4 times
- total tumor uptake (SK-RC-52 xenografts): appreciably higher
- tumor uptake of radioactivity (SK-RC-52 xenografts): remained constant up to 8 h
- tumor-to-blood and tumor-to-organ (except tumor-to-colon) ratios (SK-RC-52 xenografts): the highest at 4 h
